Measured values taken from ChEMBL document CHEMBL4888484, “Replenishing the malaria drug discovery pipeline: Screening and hit evaluation of the MMV Hit Generation Library 1 (HGL1) against asexual blood stage Plasmodium falciparum ,using a nano luciferase reporter read-out” (2022).
The campaign covered roughly 150,000 compounds. About 540 (0.36%) showed an effect of 50% or more. The list shows a part of the results.

system: Plasmodium falciparum; assay: Primary screen in NF54 nanoGlo assay, in single point, at 2uM, 72h; a lower Z score goes with more inhibition; type: functional, Erythrocyte; settings: timepoint 72 hour

Compound | % Inhibition [%] | Z score
O=S(=O)(NCCCOC[C@H]1CCCO1)c1ccc(Cl)cc1 | -9 | 0.92
O=C1CCCN1CCCn1ccnc1-c1cccc(-n2cccn2)c1 | -9 | 1.45
COCCNC(=O)CN(C)S(=O)(=O)c1cccc(F)c1F | -17 | 1.5
COc1cc(CN2CCO[C@H](c3cccnc3)C2)cc(OC)c1OC | -11 | 1.62
CNc1ccnc(-c2cnn(CC(=O)Nc3cc(C)nn3C)c2)n1 | -11 | 2.15
Cc1cccc(N[C@@]2(C(F)(F)F)NC(c3ccccc3)=NC2=O)n1 | -6 | 0.99
Cn1cc([C@@H](Nc2ccc3nncn3n2)C(C)(C)C)cn1 | -6 | 1.09
Cn1nc(-c2ccc(Cl)s2)cc1NC(=O)CCc1ccncc1 | -6 | 0.72
Cc1cccc(NC(=O)c2ccccc2NC(=O)CN2C(=O)N[C@](C)(c3ccc4c(c3)CCC4)C2=O)c1 | 3 | -0.53
CCCc1noc(CN(C)C(=O)c2c[nH]c3cc(C)nn3c2=O)n1 | -16 | 1.53
Cc1ccc(CC[C@H](C)NC(=O)CN2C(=O)Cc3ccccc32)o1 | -1 | 0.17
O=C(CN1C(=O)c2ccccc2C1=O)Nc1ccccc1-c1cn2c(n1)CCCC2 | 7 | -1.31
Fc1cc(F)cc(OCc2ncnn2CC(F)F)c1 | 7 | -1
COc1cc(-c2nc3c([nH]2)c(C2CC2)nn3C)cc2c1OCO2 | -3 | 0.41
O=C(N[C@@H]1COC2(CCCC2)C1)c1n[nH]c2c1CCC2 | -6 | 1
CCc1nc2ccc(C(=O)N3CCC(n4ccnn4)CC3)cc2s1 | -7 | 1.07
CC(C)(NC(=O)c1cccs1)c1nc([C@H]2CCOC2)no1 | 0 | 0.09
CC(C)C[C@H](C)OC(=O)NCc1cc(=O)[nH]c(C2CC2)n1 | -11 | 2
Cc1coc(-c2cccc(NC3C4CCOC4C34CCC4)c2)n1 (stereo not drawn) | -2 | 0.29
C[C@H](NC(=O)c1ccoc1)C(=O)Nc1ccn(Cc2cccnc2)n1 | -9 | 1.19
OC1CCN([C@H]2C[C@H]2c2ccccc2)CC1(F)F (stereo partly drawn) | -8 | 1.05

Compound | % Inhibition [%] | Z score
COc1ccccc1/C=C1\CCCC2C1=NN(C(=O)c1cc3nc(-c4ccc(C(C)C)cc4)cc(C(F)(F)F)n3n1)C2c1ccccc1OC (stereo not drawn) | 3 | -0.54
Cn1cnc(C(=O)N[C@@H]2CCOc3c(F)ccc(F)c32)c1 | -5 | 0.79
COc1ccc(F)c(CN2CCC([C@H](C)N3CCN(C)CC3)CC2)c1Cl | 2 | -0.43
O=C(c1ccco1)N1CCN(c2c(O)nc3ccc(Cl)cc3c2-c2ccccc2)CC1 | 1 | -0.17
Cc1cc(C)c2c(C(=O)N(C)C)cc(-c3cnc(C)nc3)nc2c1 | -10 | 1.69
CN(Cc1nc2ccc(F)cc2[nH]1)c1ccc(-c2nccn2C)nn1 | -13 | 2.49
CNc1nc(C)cc(C(=O)Nc2cc(C3CCCCC3)[nH]n2)n1 | -10 | 1.24
Fc1cc2c(c(CN3CCCC4CCCCC43)c1)OCOC2 (stereo not drawn) | -14 | 2.12
CC(=O)Nc1ccc(S(=O)(=O)NCCn2c(-c3ccccc3)nc3cccnc32)cc1 | -6 | 1
CNCc1ccc(CNC(=O)c2cn(-c3nc(C)cc(C)n3)nc2C(C)C)cc1 | 4 | -0.82
Cc1nc(N2CCCCCCC2)ncc1[C@H](C)NCc1cccnc1 | -17 | 1.54
CN1CCO[C@H](CNC(=O)Nc2ccccc2C(C)(F)F)[C@H]1c1cnn(C)c1 | -5 | 0.68
c1ccc(-n2nnnc2NC2CCCCCC2)cc1 | -4 | 0.48
COc1ccccc1C(=O)N1CCN(Cc2ccc(N(C)C)nc2)CC1 | 2 | -0.44
CCN(C)c1ccccc1NC(=O)c1cnc(C)cn1 | -11 | 1.65
CCC[C@@H](C#N)NS(=O)(=O)c1ccc(CC)s1 | -6 | 0.84
CS(=O)(=O)Nc1cccc2c1CCN(CCc1nc3ccccc3c(=O)[nH]1)C2 | -10 | 1.97
CC1=C[C@@H](CN2CCN(C)CC2)[C@H](C(C)C)C[C@H]1Cc1nnc(-c2ccccc2)o1 | 17 | -1.94
O=C(NCCCc1cccnc1)Nc1cc(N2CCOCC2)ccc1Cl | -2 | 0.32
CC(=O)NC1CCC(NC[C@H]2COC3(CCCCCC3)O2)CC1 (stereo partly drawn) | 3 | -0.31
O=C(C1CCCCO1)N1CC(O)(C(F)(F)F)c2cccnc21 (stereo not drawn) | -1 | 0.16

Compound | % Inhibition [%] | Z score
O=C(Nc1cccc2cccnc12)C(=O)N1CCCCC[C@H]1c1ccccc1 | 8 | -1.01
Cc1cc(OC(F)F)ccc1NC(=O)N1C[C@H]2CC=CC[C@H]2C1 | 4 | -0.58
CN(C)Cc1cc(-c2ccccc2)ccc1OCC(=O)N1CCN(c2cccc(Cl)c2)CC1 | -14 | 1.96
CCN[C@@H](CC(=O)Nc1ccc(Cl)c(Cl)c1)C(=O)O | -18 | 2.25
CS(=O)(=O)N1CCCC(NS(=O)(=O)[C@H]2C[C@@H]2c2ccccc2)C1 (stereo partly drawn) | 13 | -1.46
C=CCNC(=O)C(=O)NC1CCCCC1C (stereo not drawn) | -3 | 0.44
C[C@H](F)CCNC(=O)N1CCC=C(F)C1 | -12 | 1.98
CCCN1CCN(Cc2cc(C#N)c(C)[nH]2)CC1=O | -15 | 2.51
Cc1c[nH]c(CNC(=O)N(C)Cc2sccc2C)n1 | 6 | -0.96
CC1=CCCC(C)C1CNCC(C)(O)c1cnn(C)c1 (stereo not drawn) | 6 | -0.68
Cc1ncoc1C(=O)N1CCN(Cc2ccc3c(c2)OCO3)CC1 | -1 | 0.09
CC(C)(CNC(=O)[C@@H]1CC[C@H](CN2CCOCC2)O1)n1cccn1 | 8 | -1.4
Cc1ccc(C(=O)NS(=O)(=O)CC2(C#N)CCC2)c(Cl)c1 | -8 | 1.06
CN(C)CC(O)COc1ccc(S(=O)(=O)c2ccc(OCC(O)CN(C)C)c(Cl)c2)cc1Cl (stereo not drawn) | 54 | -6.62
COc1ccc2c(c1OC)CC[C@@H]2Nc1cnn(C)c1C | -11 | 1.16
Cc1nn(C)c(C)c1NC(=O)[C@H](Cc1ccccc1)n1cnnn1 | 7 | -0.95
Cc1cc(C(=O)N2CCO[C@H](C(C)(C)C)CC2)ncn1 | -3 | 0.37
COc1ccc2cc(NC(=O)c3n[nH]c4c3CCCC4)cnc2c1 | -3 | 0.43
O=C(Nc1ccccc1)N[C@H]1CCCN(C2CCCCCC2)C1 | -3 | 0.41
Cc1ccsc1CN(C(=O)c1cnccn1)c1ccc(F)c(Cl)c1 | 0 | 0.05
O=C(Nc1cnc(CC2CC2)nc1)N1C[C@@H]2CS(=O)(=O)C[C@@H]2C1 | -9 | 1.37

Compound | % Inhibition [%] | Z score
COc1ccc2[nH]c(-c3nc(CCN(C)C(=O)c4ccccc4OC)no3)cc2c1 | -5 | 0.91
Cc1cc(C(=O)N2CC3CCC3(Nc3ccc(C(F)(F)F)cn3)C2)n(C)n1 (stereo not drawn) | -1 | 0.13
O=C(CCc1nc2ccccc2[nH]1)N1CCN(S(=O)(=O)c2ccc3ccccc3c2)CC1 | -2 | 0.34
COCc1nccc(Oc2ccc(C)nc2)n1 | -6 | 1.23
CC1CCN(C(=O)c2ccc(NCc3ccncc3)nc2)CC1 | -5 | 0.73
O=C(N[C@@H](Cc1ccncc1)C(=O)O)c1cccc(C2CC2)c1 | 14 | -1.6
CN1C[C@@H](C(=O)N2CCC(O)(c3ccc(F)cc3)CC2)Oc2ccccc21 | -11 | 1.44
CCn1cc(S(=O)(=O)N(CC(C)(C)C)c2cccnc2)cn1 | -8 | 1.16
O=C(c1ccc2c(c1)CCCC2)N1CCC[C@H]1CO | -18 | 2.1
COc1ccc(CC(=O)N2c3ccccc3CCc3ccccc32)cc1 | -1 | 0.15
N#Cc1cccnc1Oc1ccc2oc3ccccc3c2c1 | -4 | 0.55
N#Cc1nc2sc(N)c(-c3nc4ccccc4[nH]3)c2nc1C#N | -8 | 1.14
CC(C)(O)C1CN(C(=O)c2nn(-c3ccc(Cl)cc3F)c3c2CCC3)C1 | -4 | 0.43
Cc1ccsc1CN(C)c1cc([C@H]2C[C@H](N)C2)ncn1 | -3 | 0.54
CCOC1CC(N(C)S(=O)(=O)c2cnc(C)s2)C12CCC2 (stereo not drawn) | -5 | 0.63
CCN1CC2(CCN(C(=O)c3ccc(Cl)s3)CC2)CC1=O | 6 | -1.09
COc1ccc(CCCN(C)c2cc(N3CCC[C@H](CO)C3)ncn2)cc1 | -17 | 1.74
CN(CCOc1ccc(Br)cc1)C(=O)c1ccc(N(C)C)cc1 | 4 | -0.84
C[C@H](NC(=O)c1ccc(=O)n(C)c1)c1ccc2[nH]ccc2c1 | -3 | 0.48
Cc1nc2ccc(N3CCC[C@H](S(C)(=O)=O)CC3)nn2n1 | 2 | -0.4
C[C@]1(C(=O)O)CCN(C(=O)c2csc(-c3ccc(Cl)s3)n2)C1 | -1 | 0.11
